Data: the supplement of paper PMC12632987
Over roughly 4,500 sequences, “median log2 fold change of GCK-ALFA target abundance (FLAG IP / Myc IP barcode read proportion)” has its median near 0.078; the lowest 2% begin near -0.6. The list shows a part of the results.

B1: GBRAP_74_6505 (protein)
chain: SEEMLKKLEEAIKKGDLLKAAKITIEILKNGSKEDAKKAMELLAKAVKENYEKVDLETAEAALEAIVLAESKFEEEEFTDEMLELLKLVTEKLLELEKKK
B2: GBRAP_11_2878 (protein)
chain: KKEKLLEIAELAEKLAELIEKLLKEGVDNEELLKEAEEQLKKLKELVEKHANEALKKLAKILEEEWKKMLEDKENAEEHAKRALAIARVLAGDARLEAEE
B3: GBRAP_39_5630 (protein)
chain: EEEEELELLESLAEADLAKREVETGLPAEELYAELLARAREAAADDPELLALIERLAALAEEHGPEARERLAAAMAAYLAGLPKEDIKRLLTALIEELEA
B4: GBRAP_128_3263 (protein)
chain: MNEEVVAYANSVVEQIKNSDKATAQKIADEFMEWLLNSSLEDAEQAVDVVISNLSKLTAEQLDILADAARKHRPKATPEKANLLADLEVEALNEALEKEE
B5: GBRAP_14_3818 (protein)
chain: MEELKAKIKEVLEELREELVEDIGLDEEEVTELIDRALAEIFAALDDPEGAEERVQEIFDRLRKEIEALAAKLGEDEAAAARALVVDAEYEVDELIEEAK
B6: GBRAP_96_7090 (protein)
chain: MLEEVKELVRGFLEALNTDPEKARELAKELLKYPPELVAKAMKELGVSDEEAVALFEVLYEEDPSKAAEWIEALTEIVSSEAVVRMVEVAIELERAREAA
B7: GBRAP_83_6933 (protein)
chain: AEKITVVANSDTLEEAFKIAIDLHKEEGKEVILEVSITREDIPKLLKEFEKVAKAGVNIELEILLTGATEEEAKELKEKLLAIAKKYGVKAKVTVELVEP
B8: GBRAP_26_5494 (protein)
chain: MVEEILAELRARIREILADESPELQAAVIAEAEDLLLEAHEYFEENLDDEEAQEKAIEEAVEEMREFLEDMGLSEEKIEKITEALREAMERILEALQKER
B9: GBRAP_83_6963 (protein)
chain: MEEVVVVTTKDHVESAADAAYDLATEEGKKVTVVLLGKPEEVLESAEIVAKKLKDIKNVEIEAVVENVRKEEAEKTKKKLKEIGEKYGLKIKFEAELIEE
B10: GBRAP_166_4926 (protein)
chain: SMEEKVEEAKERLKKVIEEGKADPSKTKAEITVDLAYETAKILEEEDDKETKLEIVRAALKLAKEAGLDPERLATLTASLAGFDDEEIEEIDKIVEEILK
B11: GBRAP_80_6767 (protein)
chain: MEEKIKKKIEEIEKIDKEIAEVLKKAVEVAKELGISEEDILEFVEAILELAKIDKEKALEITKEGLKALEEAKKEGDKERAKAELAGFISDALLEVEELE
B12: GBRAP_35_5519 (protein)
chain: SSEELEVEMLVATIEDLTLAVPDMPVEQAAQIANQLIEHAKRLAEDVKDNVEALKRLRDALERLRDALEKHYGDNPLAQEVIARIDELIAYIDKLIEEAE
B13: GBRAP_52_6216 (protein)
chain: MEEEIEKVAKEIAEALIAGDEKKLIELVKEAKEKFNLEELEKIAALMGRILAERLKGDEERIVELIDRFEEAALKAGLSEDDALALEGAAEAAAIKTLLA
B14: GBRAP_80_6804 (protein)
chain: AEAELAAALAEIAALDPELAERVRRIIERARALGVPLETLAEYARAVAALLKVDPERARELVEELEEELAEEAAAGDTANAEATLRVYAGDALLEVEELE
B15: GBRAP_184_5309 (protein)
chain: TVLRREIEADNAEEAIAQIRAAAAEARAAGARLELDLYLSNVDVEGARRIFALLAALRAEGVLAAATVAVLDERTEEEVDELVALADEAGVRLVVALSDE
B16: GBRAP_96_7099 (protein)
chain: MLEEAEELVRKLLEALDTDPELAKKLAKELLEFPVEVVVEALVKEVKTPEEAYKVTSILLSLGDPKAEEVALEFAEKSDGDRSKAIIEAMKEYEKEKEAA
B17: GBRAP_160_4076 (protein)
chain: MEEVEELEKEIKEIAEEAIKFIEESDEENQIAIIRMMAGDILLLVFEAPFISDEDEEEIDEILDEYVKKFEENKDWSIEEKKELIKEMAEKVIEKVKKAA
B18: GBRAP_52_6239 (protein)
chain: MAARMRAAAERILALVRAGDEAGARALAEELAATLDEEEARLFIREFAALAARQPAADIDAVWRAAEIVAEALEAAGWPEVLVDDLEAAVAAALVAVEAA
B19: GBRAP_11_2789 (protein)
chain: KKEKLKELARKLEEAAKLLEQLLASSPDDEELWKELERKLEEAKKLAKEAGLEDVAELLEYAIELVKKAKADPANRQQYLTEALAFVRVAKGLVLLEIEE
B20: GBRAP_128_3544 (protein)
chain: SLEAARARARAAMAAIAASDVETAYAITVELLEWLKTKSLEEVEAAVEEIEARLPELSAEKLEALADAIEEERGKFSPEVQRLLAGVEVEALNLAEELEE
B21: GBRAP_160_4385 (protein)
chain: AAALAALAKEIEALRKEFEEEAKDLNTEETRTLAIGVLAEVAALAWENEAISEETKDKIFAIIDEAIEELKANKDAPPEEIVAITTEAFDKIIALVKAEA
B22: GBRAP_80_6865 (protein)
chain: ADEKVAATLALAKSKDPELAALFEELVKELKKLGVSDEDIARIAEIISDIIELDPELAKEALKEMVKEAKKYLKEGKGEEALVVVLGIAGEALMEAEEKE
B23: GBRAP_184_5056 (protein)
chain: MIHEKVIKAETLEELEEKLEELEEELKDFKGELIVHVEIPEFTEEMIELIIERLKRILENGYVSSVTLGLDGKMSEEVVDLAIKLADEAGIKLVIALEEE
B24: GBRAP_184_5199 (protein)
chain: KVLEIEVTVSNLEEAKKKMEEILAKAKEEKADLLLILDLKTSTKEIIETIMNALGKIKKEGYAPNVLVELEGDLSDENIDLAFKLADEAGVSLVIALPEE
B25: GBRAP_160_4479 (protein)
chain: MEKVKEAAEELRERVEETLEESKDETPEQLTLAVSIELGSSLMEFSSEGKINDEQEDIVIEAMDRIRELGEEKKDATVEEVRKEIREIIKETVEKILAAA
B26: GBRAP_160_3976 (protein)
chain: SEEVEALKKEIEEIFEEAKELIEGESFEERLAIIKVAVGEIILLVSENPLMSDETEEKVAKIGDELIAYLEANPDLSLEEIKELIEKALEEIKKIIEEDA
B27: GBRAP_35_5547 (protein)
chain: DPETETVEMLLNTMEDIVLALPDVSPEDLETLTKHLIDLANLAIEEKPKNKELLERLIKALEEAIKIVEASDLPEEVKAELLKELEKARKEAEKLLEKVK
B28: GBRAP_35_5607 (protein)
chain: DSMKETVDMLVATIDDLTLAVPDLPVEQLVAIANSLIDSARALIEELTDDKEAAQRLLDSLQRLLDALKKHHGDNPLAQVTIARVEETIAFAKARIAAIK
B29: GBRAP_160_4009 (protein)
chain: SEETEKLKKEIEELIKELIEEMKGLTPEERLTLARGTVGEIIQLALESPAVSDETEEKIAEIGDEFLKRVEENANAPLEVWEEIAEEYLEKVKKLLEESE

The binders below were run against GABARAP, O95166 (assay: median log2 fold change of GCK-ALFA target abundance (FLAG IP / Myc IP barcode read proportion) (log2 ratio); each designed protein is fused to an ALFA-tag nanobody in HEK293 cells to bring the named protein to FLAG-tagged glucokinase (GCK); Myc marks an untargeted standard; higher = target protein stabilised (more abundant)). Conditions: target protein: 3xFLAG-MCP-GCK-ALFA reporter; HEK293 landing pad (RPLP).
Method in brief: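 HEK293 landing-pad cells received a recombined binder library fused to the ALFA nanobody and were induced with 2 μg mL^−1 doxycycline, then transfected with a plasmid encoding a FLAG-tagged target and a Myc-tagged standard. Lysates were collected after 48 h for anti-FLAG and anti-Myc immunoprecipitation, and the circular RNA barcodes were reverse transcribed, amplified and sequenced. Target abundance for each binder is the median log2 ratio of FLAG to Myc barcode read proportions. Barcodes had to reach a proportion of at least 10^−7 in both replicates, each binder needed at least 3 barcodes per replicate, a pseudocount of 10^−6 was applied, and the two replicates were pooled.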

Chain of GABARAP, O95166 (O95166 whole entry, the tested form may be a part): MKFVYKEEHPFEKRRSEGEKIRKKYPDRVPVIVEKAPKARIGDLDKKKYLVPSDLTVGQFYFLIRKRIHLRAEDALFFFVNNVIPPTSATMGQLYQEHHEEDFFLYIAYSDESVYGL

Q: B1 was tested. Which “median log2 fold change” value did it give?
A: The value was 0.0468.

Q: How did the “median log2 fold change” value turn out when B2 was run?
A: Its value is 0.36.

Q: With B3 as the binder, how does the “median log2 fold change” value read?
A: The value was 0.159.

Q: B4 was tested. Which “median log2 fold change” value did it give?
A: Its value is 0.00415.

Q: B5 was tested. Which “median log2 fold change” value did it give?
A: Its value is -0.0751.

Q: With B6 as the binder, how does the “median log2 fold change” value read?
A: The value was 0.0668.

Q: How did the “median log2 fold change” value turn out when B7 was run?
A: Its value is 0.179.

Q: B8 was tested. Which “median log2 fold change” value did it give?
A: The value was -0.225.

Q: Which “median log2 fold change” value does the source give for B9 here?
A: Its value is 0.0181.

Q: With B10 as the binder, how does the “median log2 fold change” value read?
A: The value was 0.0535.

Q: How did the “median log2 fold change” value turn out when B11 was run?
A: Its value is 0.229.

Q: How did the “median log2 fold change” value turn out when B12 was run?
A: Its value is 0.118.

Q: For B13, which “median log2 fold change” value is on record?
A: The value was 0.049.

Q: How did the “median log2 fold change” value turn out when B14 was run?
A: Its value is -0.231.

Q: Which “median log2 fold change” value does the source give for B15 here?
A: Its value is -0.372.

Q: B16 was tested. Which “median log2 fold change” value did it give?
A: Its value is 0.12.

Q: B17 was tested. Which “median log2 fold change” value did it give?
A: Its value is -0.449.

Q: How did the “median log2 fold change” value turn out when B18 was run?
A: The value was -0.504.

Q: B19 was tested. Which “median log2 fold change” value did it give?
A: Its value is 0.0274.

Q: How did the “median log2 fold change” value turn out when B20 was run?
A: Its value is -0.229.

Q: How did the “median log2 fold change” value turn out when B21 was run?
A: Its value is -0.171.

Q: With B22 as the binder, how does the “median log2 fold change” value read?
A: The value was 0.107.

Q: How did the “median log2 fold change” value turn out when B23 was run?
A: Its value is 0.234.

Q: B24 was tested. Which “median log2 fold change” value did it give?
A: Its value is -0.0295.

Q: How did the “median log2 fold change” value turn out when B25 was run?
A: Its value is 0.0127.

Q: With B26 as the binder, how does the “median log2 fold change” value read?
A: The value was -0.486.

Q: Which “median log2 fold change” value does the source give for B27 here?
A: Its value is 0.0216.

Q: With B28 as the binder, how does the “median log2 fold change” value read?
A: Its value is -0.379.

Q: For B29, which “median log2 fold change” value is on record?
A: The value was 0.232.
